Positions count from the first letter of the chain named. In names and notes the source's numbering stands. One block for each binder: values may come before it.
Assays:
human CD19 = target: T1, human CD19 (human, UniProt P15391 20-556); experiment: flow cytometry on human PBMCs gated on living CD3- CD20+ B cells, constructs 1 h at 4 °C, PE anti-human IgG secondary
T1 construct: Endogenous CD19 on primary human B cells (PBMCs) or on the CD19 positive tumor cell line WSU-DLCL2; also called B-lymphocyte antigen CD19
T1 sequence: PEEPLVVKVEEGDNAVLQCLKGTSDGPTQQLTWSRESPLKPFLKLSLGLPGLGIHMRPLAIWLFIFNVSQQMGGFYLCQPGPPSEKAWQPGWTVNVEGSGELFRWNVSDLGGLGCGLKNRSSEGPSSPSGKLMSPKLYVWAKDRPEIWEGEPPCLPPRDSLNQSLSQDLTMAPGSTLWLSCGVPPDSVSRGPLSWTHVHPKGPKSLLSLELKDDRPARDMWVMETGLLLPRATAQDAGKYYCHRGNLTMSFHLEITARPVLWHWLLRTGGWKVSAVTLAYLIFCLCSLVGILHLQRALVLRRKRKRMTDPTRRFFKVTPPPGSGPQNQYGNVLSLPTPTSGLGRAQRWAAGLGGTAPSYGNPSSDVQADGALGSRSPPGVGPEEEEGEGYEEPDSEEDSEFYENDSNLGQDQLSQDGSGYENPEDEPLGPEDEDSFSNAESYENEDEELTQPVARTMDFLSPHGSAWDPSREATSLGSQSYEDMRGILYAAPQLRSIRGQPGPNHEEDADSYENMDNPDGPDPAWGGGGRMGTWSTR

human 4-1BB [1] = target: T2, human 4-1BB (human, UniProt Q07011 24-186); experiment: flow cytometry on human PBMCs pre-activated 48 h with anti-CD3/anti-CD28 beads, gated on activated CD4 T cells, constructs 1 h at 4 °C, PE anti-human IgG secondary
T2 construct: also called CD137

human 4-1BB [2] = target: T2, human 4-1BB; experiment: flow cytometry on human PBMCs pre-activated 48 h with anti-CD3/anti-CD28 beads, gated on activated CD8 T cells, constructs 1 h at 4 °C, PE anti-human IgG secondary

- EC50 (read off the curve) (human CD19): ~0.3 µg/mL
- EC50 (read off the curve) (human 4-1BB [1]): ~0.3 µg/mL
- EC50 (read off the curve) (human 4-1BB [2]): ~0.3 µg/mL
B1: mono CD19(018)-4-1BBL (Charged variant) (Fc fusion)
heavy: QVQLVQSGAEVKKPGASVKVSCKASGYTFTDYIMHWVRQAPGQGLEWMGYINPYNDGSKYTEKFQGRVTMTSDTSISTAYMELSRLRSDDTAVYYCARGTYYYGSALFDYWGQGTTVTVSSASTKGPSVFPLAPSSKSTSGGTAALGCLVKDYFPEPVTVSWNSGALTSGVHTFPAVLQSSGLYSLSSVVTVPSSSLGTQTYICNVNHKPSNTKVDKKVEPKSCDKTHTCPPCPAPEAAGGPSVFLFPPKPKDTLMISRTPEVTCVVVDVSHEDPEVKFNWYVDGVEVHNAKTKPREEQYNSTYRVVSVLTVLHQDWLNGKEYKCKVSNKALGAPIEKTISKAKGQPREPQVCTLPPSRDELTKNQVSLSCAVKGFYPSDIAVEWESNGQPENNYKTTPPVLDSDGSFFLVSKLTVDKSRWQQGNVFSCSVMHEALHNHYTQKSLSLSPGK
light: DIVMTQTPLSLSVTPGQPASISCKSSQSLENPNGNTYLNWYLQKPGQSPQLLIYRVSKRFSGVPDRFSGSGSGTDFTLKISRVEAEDVGVYYCLQLTHVPYTFGQGTKLEIKRTVAAPSVFIFPPSDEQLKSGTASVVCLLNNFYPREAKVQWKVDNALQSGNSQESVTEQDSKDSTYSLSSTLTLSKADYEKHKVYACEVTHQGLSSPVTKSFNRGEC
chain 1: REGPELSPDDPAGLLDLRQGMFAQLVAQNVLLIDGPLSWYSDPGLAGVSLTGGLSYKEDTKELVVAKAGVYYVFFQLELRRVVAGEGSGSVSLALHLQPLRSAAGAAALALTVDLPPASSEARNSAFGFQGRLLHLSAGQRLGVHLHTEARARHAWQLTQGATVLGLFRVTPEIPAGLGGGGSGGGGSREGPELSPDDPAGLLDLRQGMFAQLVAQNVLLIDGPLSWYSDPGLAGVSLTGGLSYKEDTKELVVAKAGVYYVFFQLELRRVVAGEGSGSVSLALHLQPLRSAAGAAALALTVDLPPASSEARNSAFGFQGRLLHLSAGQRLGVHLHTEARARHAWQLTQGATVLGLFRVTPEIPAGLGGGGSGGGGSRTVAAPSVFIFPPSDRKLKSGTASVVCLLNNFYPREAKVQWKVDNALQSGNSQESVTEQDSKDSTYSLSSTLTLSKADYEKHKVYACEVTHQGLSSPVTKSFNRGE[human IgG1 Fc with changes left out]
chain 2: REGPELSPDDPAGLLDLRQGMFAQLVAQNVLLIDGPLSWYSDPGLAGVSLTGGLSYKEDTKELVVAKAGVYYVFFQLELRRVVAGEGSGSVSLALHLQPLRSAAGAAALALTVDLPPASSEARNSAFGFQGRLLHLSAGQRLGVHLHTEARARHAWQLTQGATVLGLFRVTPEIPAGLGGGGSGGGGSASTKGPSVFPLAPSSKSTSGGTAALGCLVEDYFPEPVTVSWNSGALTSGVHTFPAVLQSSGLYSLSSVVTVPSSSLGTQTYICNVNHKPSNTKVDEKVEPKSC
notes: human IgG1 Fc, knob-into-hole, P329G LALA; also called monovalent CD19(018)-4-1BBL; Construct 3.4

- EC50 (read off the curve) (human 4-1BB [1]): ~0.3 µg/mL
- EC50 (read off the curve) (human 4-1BB [2]): ~0.3 µg/mL
B2: bi CD19(018)-4-1BBL (Fc fusion)
light: B1 light
heavy 1: QVQLVQSGAEVKKPGASVKVSCKASGYTFTDYIMHWVRQAPGQGLEWMGYINPYNDGSKYTEKFQGRVTMTSDTSISTAYMELSRLRSDDTAVYYCARGTYYYGSALFDYWGQGTTVTVSSASTKGPSVFPLAPSSKSTSGGTAALGCLVKDYFPEPVTVSWNSGALTSGVHTFPAVLQSSGLYSLSSVVTVPSSSLGTQTYICNVNHKPSNTKVDKKVEPKSCDKTHTCPPCPAPEAAGGPSVFLFPPKPKDTLMISRTPEVTCVVVDVSHEDPEVKFNWYVDGVEVHNAKTKPREEQYNSTYRVVSVLTVLHQDWLNGKEYKCKVSNKALGAPIEKTISKAKGQPREPQVCTLPPSRDELTKNQVSLSCAVKGFYPSDIAVEWESNGQPENNYKTTPPVLDSDGSFFLVSKLTVDKSRWQQGNVFSCSVMHEALHNHYTQKSLSLSPGGGGGSGGGGSREGPELSPDDPAGLLDLRQGMFAQLVAQNVLLIDGPLSWYSDPGLAGVSLTGGLSYKEDTKELVVAKAGVYYVFFQLELRRVVAGEGSGSVSLALHLQPLRSAAGAAALALTVDLPPASSEARNSAFGFQGRLLHLSAGQRLGVHLHTEARARHAWQLTQGATVLGLFRVTPEIPAGLGGGGSGGGGSREGPELSPDDPAGLLDLRQGMFAQLVAQNVLLIDGPLSWYSDPGLAGVSLTGGLSYKEDTKELVVAKAGVYYVFFQLELRRVVAGEGSGSVSLALHLQPLRSAAGAAALALTVDLPPASSEARNSAFGFQGRLLHLSAGQRLGVHLHTEARARHAWQLTQGATVLGLFRVTPEIPAGL
heavy 2: QVQLVQSGAEVKKPGASVKVSCKASGYTFTDYIMHWVRQAPGQGLEWMGYINPYNDGSKYTEKFQGRVTMTSDTSISTAYMELSRLRSDDTAVYYCARGTYYYGSALFDYWGQGTTVTVSSASTKGPSVFPLAPSSKSTSGGTAALGCLVKDYFPEPVTVSWNSGALTSGVHTFPAVLQSSGLYSLSSVVTVPSSSLGTQTYICNVNHKPSNTKVDKKV[human IgG1 Fc with changes left out]GGGGSGGGGSREGPELSPDDPAGLLDLRQGMFAQLVAQNVLLIDGPLSWYSDPGLAGVSLTGGLSYKEDTKELVVAKAGVYYVFFQLELRRVVAGEGSGSVSLALHLQPLRSAAGAAALALTVDLPPASSEARNSAFGFQGRLLHLSAGQRLGVHLHTEARARHAWQLTQGATVLGLFRVTPEIPAGL
notes: human IgG1 Fc, knob-into-hole, P329G LALA; 4-1BBL fused to the C-termini of the Fc chains; also called bivalent CD19(018)-4-1BBL; Construct 3.6

- binding result (human CD19): no binding (tested: 50 µg/ml)
B3: mono untargeted DP47-4-1BBL (Fc fusion)
heavy: [about 100 residues left out]GSGFDYWGQGTLVTVSSASTKGPSVFPLAPSSKSTSGGTAALGCLVKDYFPEPVTVSWNSGALTSGVHTFPAVLQSSGLYSLSSVVTVPSSSLGTQTYICNVNHKPSNTKVDKKVEPKSCDKTHTCPPCPAPEAAGGPSVFLFPPKPKDTLMISRTPEVTCVVVDVSHEDPEVKFNWYVDGVEVHNAKTKPREEQYNSTYRVVSVLTVLHQDWLNGKEYKCKVSNKALGAPIEKTISKAKGQPREPQVCTLPPSRDELTKNQVSLSCAVKGFYPSDIAVEWESNGQPENNYKTTPPVLDSDGSFFLVSKLTVDKSRWQQGNVFSCSVMHEALHNHYTQKSLSLSPGK
light: [about 100 residues left out][about 100 residues left out]
chain 1: REGPELSPDDPAGLLDLRQGMFAQLVAQNVLLIDGPLSWYSDPGLAGVSLTGGLSYKEDTKELVVAKAGVYYVFFQLELRRVVAGEGSGSVSLALHLQPLRSAAGAAALALTVDLPPASSEARNSAFGFQGRLLHLSAGQRLGVHLHTEARARHAWQLTQGATVLGLFRVTPEIPAGLGGGGSGGGGSREGPELSPDDPAGLLDLRQGMFAQLVAQNVLLIDGPLSWYSDPGLAGVSLTGGLSYKEDTKELVVAKAGVYYVFFQLELRRVVAGEGSGSVSLALHLQPLRSAAGAAALALTVDLPPASSEARNSAFGFQGRLLHLSAGQRLGVHLHTEARARHAWQLTQGATVLGLFRVTPEIPAGLGGGGSGGGGSRTVAAPSVFIFPPSDEQLKSGTASVVCLLNNFYPREAKVQWKVDNALQSGNSQESVTEQDSKDSTYSLSSTLTLSKADYEKHKVYACEVTHQGLSSPVTKSFNRGE[human IgG1 Fc with changes left out]
chain 2: B1 chain 2 with E218K, E284K
notes: used here, to be rechecked; also called mono untargeted 4-1BBL; monovalent untargeted 4-1BBL
